PMC9388626, “STUB1 is an intracellular checkpoint for interferon gamma sensing” (Scientific Reports, 2022)
No constants are given. Whether binding was seen depends on the method and setting. For part of these data: In cells and extracts the contact can be indirect. Some entries that bind do so weakly or less than the wild type. For part of these data: Where a sequence is shown, tags or fusion partners need not be part of it.

The chains behind the UniProt entries cited, without tags or fusion partners. Residues count along the entry.
UniProt Q9WUD1: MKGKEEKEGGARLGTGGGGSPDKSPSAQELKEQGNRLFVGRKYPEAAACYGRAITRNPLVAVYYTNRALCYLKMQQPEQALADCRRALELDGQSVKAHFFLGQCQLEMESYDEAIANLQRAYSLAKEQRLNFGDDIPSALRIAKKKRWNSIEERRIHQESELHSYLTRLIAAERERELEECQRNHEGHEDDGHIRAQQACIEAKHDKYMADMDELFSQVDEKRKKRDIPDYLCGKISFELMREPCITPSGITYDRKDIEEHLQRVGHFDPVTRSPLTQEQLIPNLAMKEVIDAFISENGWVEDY
UniProt Q9UNE7, residues 25-153: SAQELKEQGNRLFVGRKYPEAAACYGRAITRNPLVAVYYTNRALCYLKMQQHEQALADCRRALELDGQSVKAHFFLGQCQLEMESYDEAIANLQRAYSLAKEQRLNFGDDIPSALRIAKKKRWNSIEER

How the values were obtained:
[1] = target: T1, FLAG-mCherry2-GGSGGS-SIWWPD; test: co-IP; anti-FLAG magnetic beads, lysate of B16-F10 cells stably expressing FLAG-mCherry2-peptide; room temperature 4 h; blot for STUB1 and FLAG
T1 sequence: GGSGGSSIWWPD

[2] = target: T2, FLAG-mCherry2-GGSGGS-SIWWHR; test: as above
T2 sequence: GGSGGSSIWWHR

[3] = target: STUB1 (endogenous, B16-F10 cells) (mouse (endogenous in B16-F10)) (UniProt Q9WUD1); test: co-IP; as the anti-FLAG co-IP from B16-F10 lysate, with synthetic peptide (SIWWPD) added into the co-IP mixture for competitive inhibition; only the binder purified
[4] = target: Recombinant STUB1 protein, spanning aa25-aa153 (UniProt Q9UNE7); test: ITC; peptide (200 µM) injected into STUB1 aa25-aa153 (20 µM); 25 °C; PBS pH 7.4, 0.5 mM TCEP, 2% DMSO; one-site binding model; both purified
[5] = target: Recombinant STUB1 protein, spanning aa25-aa153 (UniProt Q9UNE7); test: fluorescence polarisation; competitive; 15 nM tracer 5-FAM-…, 1 µM STUB1 aa25-aa153, peptide of interest 5 nM to 100 µM; room temperature; PBS pH 7.4, 0.01% v/v Tween 20; 30 min incubation; both purified
[6] = target: Recombinant STUB1 protein, spanning aa25-aa153 (UniProt Q9UNE7); test: thermal shift assay; SYPRO Orange; 100 µM peptide, 10 µM STUB1 aa25-aa153; heated from 25 to 95 °C in 0.5 °C increments; both purified

With “STUB1 (endogenous, B16-F10 cells) (from UniProt Q9WUD1 1-304)” the binding [1] was “binds” and the binding [2] was “no binding”.

SIWWPD (N-acetylation; free C-terminal carboxylic acid) [synthetic inhibitory peptide SIWWPD] was tested, and the binding [3] was “binds”.

SIWWHR (N-acetylation; free C-terminal carboxylic acid) [synthetic control peptide SIWWHR] was tested, and the binding [4] was “no binding (tested: KD > 10 µM)”, the binding [5] was “no binding (tested: IC50 > 100 µM)” and the binding [6] was “no binding (tested: 100 µM peptide)”.
